{"source": "PubChem BioAssay (Tox21)", "key": {"[1]": {"assay": "qHTS assay to identify small molecule HDAC inhibitors (AID 1259364); note: potency is the fitted concentration of half-maximal effect;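 note: wild-type HCT-116 cells with endogenous class I/II HDAC activity; nearly all actives have a fitted effect of over 45% in size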; for activity change, negative = inhibition: top concentration of the series differs between compounds; % is set by controls: 0 for no effect and ±100 for the full control effect", "summary_of_the_method": "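After a 2 hr compound incubation (37C, 5% CO2), HCT-116 cells seeded at 1,500/well the day before received HDAC-Glo reagent; signal read as luminescence after 30 min at room temperature.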"}, "[2]": {"assay": "qHTS assay to identify small molecule antagonists of the sonic hedgehog signaling (Shh) pathway (AID 1259369; calls by dose curve; note: nearly all actives have a fitted effect of over 45% in size; note: potency is the fitted concentration of half-maximal effect)", "summary_of_the_method": "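Gli1 transcriptional reporter (firefly Luc) in NIH/3T3 background, conditioned-medium activated. 24hr exposure, luminescence endpoint.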"}, "[3]": {"assay": "qHTS assay to identify small molecule HDAC inhibitors - cell viability counter screen (AID 1259365); note: potency is the fitted concentration of half-maximal effect; nearly all actives have a fitted effect of over 50% in size", "summary_of_the_method": "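Counter screen in wild-type HCT-116 cells: compounds dissolved in DMSO are pin-transferred onto overnight-plated cells and left 2hr at 37C. ATP-based CellTiter-Glo luminescence then measures viable cells.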"}, "[4]": {"assay": "qHTS assay to identify small molecule agonists of the sonic hedgehog signaling (Shh) pathway - cell viability counter screen (AID 1259366); note: potency is the fitted concentration of half-maximal effect; nearly all actives have a fitted effect of over 50% in size", "summary_of_the_method": "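Cells are plated at 2,000 per well and left 4hr at 37C, 5% CO2 before compound addition. After 23hr of treatment, CellTiter-Fluor reagent is added for 1hr at 37C and fluorescence is measured.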"}, "[5]": {"molecular_target": "Estrogen receptor beta (Homo sapiens) (UniProt Q92731)", "sequence (Q92731 whole entry, looked up)": "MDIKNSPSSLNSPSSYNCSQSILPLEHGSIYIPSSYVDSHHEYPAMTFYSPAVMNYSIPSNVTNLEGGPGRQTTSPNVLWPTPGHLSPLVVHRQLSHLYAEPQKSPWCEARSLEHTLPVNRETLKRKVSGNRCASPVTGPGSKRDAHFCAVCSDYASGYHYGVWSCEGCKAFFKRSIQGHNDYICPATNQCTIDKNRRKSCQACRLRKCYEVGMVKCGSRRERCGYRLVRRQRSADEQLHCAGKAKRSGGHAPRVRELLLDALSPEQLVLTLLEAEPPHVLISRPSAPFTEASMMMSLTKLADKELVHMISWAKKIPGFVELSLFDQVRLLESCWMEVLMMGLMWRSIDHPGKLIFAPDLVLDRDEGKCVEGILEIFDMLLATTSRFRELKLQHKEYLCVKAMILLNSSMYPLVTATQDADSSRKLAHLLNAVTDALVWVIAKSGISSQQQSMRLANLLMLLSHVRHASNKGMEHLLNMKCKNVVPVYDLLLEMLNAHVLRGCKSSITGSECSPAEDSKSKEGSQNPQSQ", "assay": "qHTS assay to identify small molecule agonists of the estrogen receptor beta (ER-beta) signaling pathway (AID 1259377; active = well fitted activation curve with a large enough effect in the signal ratio in the repeat runs, not every such curve was filed as active; inconclusive = weak or mixed curves, or effect the other way; the % refers to the signal ratio; note: potency is the fitted concentration of half-maximal effect)", "details": "ER-beta-UAS-bla HEK293T, beta-lactamase FRET ratio, 16 h; activation: at 92.4 µM (top of the series) unless noted", "summary_of_the_method": "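Agonist mode cell assay in GripTite HEK293T cells expressing an ER-beta fusion that drives beta-lactamase from an Upstream Activator Sequence; 16 hr compound exposure at 37C, then 2 h LiveBLAzer B/G FRET substrate at room temperature, fluorescence read-out.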"}, "[6]": {"molecular_target": "Estrogen receptor beta (Homo sapiens) (UniProt Q92731)", "assay": "qHTS assay to identify small molecule antagonists of the estrogen receptor beta (ER-beta) signaling pathway (AID 1259378; active = well fitted inhibition curve with a large enough effect in the signal ratio in the repeat runs, not every such curve was filed as active; inconclusive = weak or mixed curves, or effect the other way; inactive = no such curve, though single readings can be large or run the other way; the % refers to the signal ratio; note: potency is the fitted concentration of half-maximal effect; for activity, negative = inhibition: % is set by controls: 0 for no effect and ±100 for the full control effect)", "details": "ER-beta-UAS-bla HEK293T, beta-lactamase FRET ratio, 16 h; activity, negative = inhibition: at 92.4 µM (top of the series) unless noted", "summary_of_the_method": "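ER-beta-UAS-bla HEK293T cells in 2% charcoal-stripped FBS medium treated with compound plus 1nM final 17-beta-estradiol for 16 hr at 37C. Beta-lactamase reporter read by FRET substrate fluorescence after 2 hours at room temperature.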"}, "[7]": {"assay": "qHTS assay to identify small molecule agonists of the estrogen receptor beta (ER-beta) signaling pathway - cell viability counter screen (AID 1259380); note: potency is the fitted concentration of half-maximal effect; nearly all actives have a fitted effect of over 30% in size", "summary_of_the_method": "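In this qHTS counter screen, HEK293T cells carrying an ER-beta/UAS beta-lactamase reporter, grown in 2% charcoal-stripped FBS, received compound for 16 hr; ATP-based CellTiter-Glo luminescence was then read after 30 min at room temperature.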"}, "[8]": {"assay": "qHTS assay to identify small molecule antagonists of the estrogen receptor beta (ER-beta) signaling pathway - cell viability counter screen (AID 1259382); note: potency is the fitted concentration of half-maximal effect; nearly all actives have a fitted effect of over 55% in size", "summary_of_the_method": "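HEK293T ER-beta-UAS-bla, 2% charcoal-stripped FBS; compounds + 1nM E2 16 hr 37C; CellTiter-Glo luminescence, 30 min RT.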"}, "[9]": {"assay": "qHTS assay to identify small molecule agonists of the estrogen receptor alpha (ER-alpha) signaling pathway in the presence of an antagonist - cell viability counter screen (AID 1259386); note: potency is the fitted concentration of half-maximal effect; nearly all actives have a fitted effect of over 30% in size", "summary_of_the_method": "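Steps: 5-day stripped-FBS culture; seed and incubate 24hr; add ICI-182,780 (10.0nM final); pin 15-point compound titration; incubate 22hr at 37C; add CellTiter-Fluor at 21hr; read fluorescence.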"}, "[10]": {"molecular_target": "Thyrotropin receptor (Homo sapiens) (UniProt P16473)", "sequence (P16473 whole entry, looked up)": "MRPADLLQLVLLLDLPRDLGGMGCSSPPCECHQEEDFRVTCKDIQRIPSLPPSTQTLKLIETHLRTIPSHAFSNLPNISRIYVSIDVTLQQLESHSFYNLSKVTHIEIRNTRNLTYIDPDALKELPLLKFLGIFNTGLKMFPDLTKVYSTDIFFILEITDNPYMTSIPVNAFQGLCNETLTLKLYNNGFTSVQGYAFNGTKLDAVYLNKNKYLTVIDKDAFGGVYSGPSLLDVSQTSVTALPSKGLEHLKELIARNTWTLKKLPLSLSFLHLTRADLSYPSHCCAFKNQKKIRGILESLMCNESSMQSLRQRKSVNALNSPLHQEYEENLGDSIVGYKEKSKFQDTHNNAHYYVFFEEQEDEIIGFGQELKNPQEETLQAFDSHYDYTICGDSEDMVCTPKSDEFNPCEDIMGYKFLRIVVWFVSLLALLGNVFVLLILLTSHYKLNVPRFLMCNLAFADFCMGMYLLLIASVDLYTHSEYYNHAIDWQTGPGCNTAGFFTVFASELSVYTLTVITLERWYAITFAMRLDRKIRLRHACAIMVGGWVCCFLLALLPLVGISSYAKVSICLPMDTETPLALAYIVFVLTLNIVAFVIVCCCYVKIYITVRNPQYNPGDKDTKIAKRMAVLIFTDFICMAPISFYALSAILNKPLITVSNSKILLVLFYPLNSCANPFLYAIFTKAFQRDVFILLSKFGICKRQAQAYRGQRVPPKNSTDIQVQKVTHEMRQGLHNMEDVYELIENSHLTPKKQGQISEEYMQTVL", "assay": "qHTS assay to identify small molecule antagonists of the thyroid stimulating hormone receptor (TSHR) signaling pathway (AID 1259385; calls by dose curve; note: nearly all actives have a fitted effect of over 20% in size; note: potency is the fitted concentration of half-maximal effect; for activity change, negative = inhibition: % is set by controls: 0 for no effect and ±100 for the full control effect)", "details": "TSHR-HEK293 cAMP HTRF, TSH-stimulated antagonist mode; activity change, negative = inhibition: at 92.4 µM (top of the series) unless noted", "summary_of_the_method": "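TSHR-HEK293 cells (800/well) plated 18 h, then compounds with Ro20-1724 and TSH at 1.5 ng/mL final, 30 min at room temperature. cAMP quantified by HTRF (cAMP-d2/anti-cAMP-cryptate, 1 h); 15 concentrations in triplicate.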"}, "[11]": {"assay": "qHTS assay to identify small molecule agonists or antagonists of the thyroid stimulating hormone receptor (TSHR) signaling pathway - wild type cell line counter screen (AID 1259384; calls by dose curve; note: % is set by controls: 0 for no effect and ±100 for the full control effect)", "details": "HEK293 wild type, cAMP HTRF counter-screen; cAMP activity change: at 92.4 µM (top of the series), stronger effect = higher value unless noted", "summary_of_the_method": "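Wild-type Hek293 cells, 800/well, 18 h at 37C, then compound with Ro20-1724 for 30 min RT. cAMP by HTRF (cAMP-d2/anti-cAMP cryptate), 1 h RT, fluorescence read. 15 concentrations, triplicates.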"}, "[12]": {"molecular_target": "Estrogen receptor (Homo sapiens) (UniProt P03372)", "sequence (P03372 whole entry, looked up)": "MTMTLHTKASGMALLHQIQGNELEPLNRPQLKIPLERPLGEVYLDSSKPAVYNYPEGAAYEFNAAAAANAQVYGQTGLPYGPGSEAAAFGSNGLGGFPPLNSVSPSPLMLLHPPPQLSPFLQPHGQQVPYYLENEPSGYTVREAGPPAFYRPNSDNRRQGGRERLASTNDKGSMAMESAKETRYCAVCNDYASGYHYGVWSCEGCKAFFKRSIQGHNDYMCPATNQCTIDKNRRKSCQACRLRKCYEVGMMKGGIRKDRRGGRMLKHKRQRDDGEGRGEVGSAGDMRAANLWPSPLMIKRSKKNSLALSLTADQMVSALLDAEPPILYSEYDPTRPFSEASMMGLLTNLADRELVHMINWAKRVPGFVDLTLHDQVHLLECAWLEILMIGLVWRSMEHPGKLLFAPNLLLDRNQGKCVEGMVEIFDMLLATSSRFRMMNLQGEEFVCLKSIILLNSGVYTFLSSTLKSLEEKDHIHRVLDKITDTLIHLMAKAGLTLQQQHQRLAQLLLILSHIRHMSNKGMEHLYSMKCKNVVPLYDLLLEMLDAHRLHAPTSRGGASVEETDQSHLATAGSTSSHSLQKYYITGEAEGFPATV", "assay": "qHTS assay to identify small molecule agonists of the estrogen receptor alpha (ER-alpha) signaling pathway in the presence of an antagonist (AID 1259383; calls by dose curve; note: potency is the fitted concentration of half-maximal effect; nearly all actives have a fitted effect of over 15% in size)", "summary_of_the_method": "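ER-alpha agonism measured under antagonist challenge: 10.0nM ICI-182,780 (final) plus compound, 15 concentrations, 22hr, VM7Luc4E2 ERE-luciferase cells. Read by luminescence.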"}, "[13]": {"assay": "qHTS assay to identify small molecule agonists of the androgen receptor (AR) signaling pathway in the presence of an antagonist - cell viability counter screen (AID 1259379); note: potency is the fitted concentration of half-maximal effect; nearly all actives have a fitted effect of over 25% in size", "summary_of_the_method": "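Counter screen for cell viability run in parallel with the AR agonist-mode luciferase assay. MDA-kb2 cells were co-treated with nilutamide (3.0uM final) and compounds, then incubated 16 hr at 37C, and CellTiter-Fluor fluorescence was measured.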"}}, "note": "Several values for one entry are separate records, joined by “and”; a condition that tells them apart may be missing. Equal entries are not always repeated. Inconclusive results, whose numbers are uncertain, are shown with a selection of clear calls. For some of these results: A potency beside an inconclusive call is a rough fit, not a confirmed value. The source holds several records for some structures; these can differ, active in one and inactive in another. Activity calls are given as the source filed them. Unless noted, calls come from the whole dose curve; as a rule, active = well fitted curve in the direction sought with a large enough effect in the repeat runs; inconclusive = weak or mixed curves; inactive = no such curve, though single readings can be large; an effect the other way counts as inactive or inconclusive. Tags give direction and shape of the fitted curve or compound fluorescence and quenching.", "data": [{"smiles": "COc1ccc2[nH]cc(CCNC(C)=O)c2c1", "values": [{"measurement": "Potency", "setting": "[1]", "result": "inactive"}, {"measurement": "Potency", "setting": "[2]", "result": "inconclusive: 27.7 µM [inhibitor, full curve, poor fit]"}]}, {"smiles": "CC(C)(C)CC(C)(C)c1ccc(OCCOCC[N+](C)(C)Cc2ccccc2)cc1", "values": [{"measurement": "Potency", "setting": "[3]", "result": "inconclusive: 54.4 µM [cytotoxic, partial curve]"}, {"measurement": "Potency", "setting": "[4]", "result": "active: 48.5 µM and inconclusive: 33.5 µM [cytotoxic, single point]"}, {"measurement": "Potency", "setting": "[2]", "result": "inconclusive: 9.68 µM [inhibitor, full curve]"}, {"measurement": "Potency", "setting": "[5]", "result": "inconclusive: 68.5 µM [cytotoxic]"}, {"measurement": "Potency", "setting": "[6]", "result": "inconclusive: 68.5 µM [cytotoxic, single point] and active: 26.6 µM"}, {"measurement": "Potency", "setting": "[7]", "result": "active: 27.3 µM and active: 16.8 µM"}, {"measurement": "Potency", "setting": "[8]", "result": "active: 27.3 µM and active: 15 µM"}, {"measurement": "Potency", "setting": "[9]", "result": "active: 61.1 µM and inconclusive: 21.1 µM [cytotoxic, partial curve, poor fit]"}]}, {"smiles": "CCCOc1sc(C(=O)N2CCC(c3cc(CN)ccc3F)CC2)c(C)c1Br", "values": [{"measurement": "Potency", "setting": "[1]", "result": "inconclusive: 11.2 µM [inhibitor, full curve]"}, {"measurement": "Potency", "setting": "[5]", "result": "inconclusive: 62.8 µM [cytotoxic]"}, {"measurement": "Potency", "setting": "[6]", "result": "inconclusive: 56 µM [cytotoxic, partial curve]"}, {"measurement": "Potency", "setting": "[7]", "result": "active: 28.1 µM"}, {"measurement": "Potency", "setting": "[10]", "result": "active: 56 µM"}]}, {"smiles": "O=C(Nc1ccc([N+](=O)[O-])cc1Cl)c1cc(Cl)ccc1O", "values": [{"measurement": "Potency", "setting": "[1]", "result": "active: 969 nM and active: 580 nM"}, {"measurement": "Potency", "setting": "[4]", "result": "active: 68.6 µM"}, {"measurement": "Potency", "setting": "[2]", "result": "inconclusive: 5.45 µM [inhibitor, full curve, poor fit] and inconclusive: 11.6 µM [inhibitor, partial curve, poor fit]"}, {"measurement": "Potency", "setting": "[6]", "result": "inconclusive: 34.4 µM [rising, partial curve]"}, {"measurement": "activity, negative = inhibition", "setting": "[6]", "result": "inconclusive: -41.4% [at 19 µM]"}, {"measurement": "Potency", "setting": "[7]", "result": "active: 8.63 µM and active: 92 nM"}, {"measurement": "Potency", "setting": "[8]", "result": "active: 2.17 µM"}, {"measurement": "Potency", "setting": "[10]", "result": "inactive"}]}, {"smiles": "S=C(SSSSSSC(=S)N1CCCCC1)N1CCCCC1", "values": [{"measurement": "Potency", "setting": "[3]", "result": "inconclusive: 13.4 µM [rising, partial curve]"}, {"measurement": "Potency", "setting": "[2]", "result": "inconclusive: 8.48 µM [inhibitor]"}, {"measurement": "Potency", "setting": "[5]", "result": "inconclusive: 8.48 µM [rising, full curve, poor fit]"}, {"measurement": "Potency", "setting": "[6]", "result": "active: 13.4 µM"}, {"measurement": "Potency", "setting": "[7]", "result": "inconclusive: 0.338 µM [cytotoxic, single point]"}, {"measurement": "Potency", "setting": "[8]", "result": "inconclusive: 13.4 µM [cytotoxic, partial curve]"}, {"measurement": "Potency", "setting": "[9]", "result": "inconclusive: 13.4 µM [cytotoxic, partial curve]"}]}, {"smiles": "c1ccc2c(c1)CCc1ccccc1N2", "values": [{"measurement": "Potency", "setting": "[1]", "result": "inconclusive: 54.8 µM [inhibitor, partial curve] and inconclusive: 23.7 µM [inhibitor]"}, {"measurement": "Potency", "setting": "[7]", "result": "inconclusive: 68.9 µM [cytotoxic, single point]"}, {"measurement": "Potency", "setting": "[11]", "result": "inactive"}, {"measurement": "Potency", "setting": "[10]", "result": "inconclusive: 68.9 µM [falling, partial curve, poor fit]"}]}, {"smiles": "c1ccc(OCCOc2ccccc2)cc1", "values": [{"measurement": "Potency", "setting": "[1]", "result": "inconclusive: 30.6 µM [inhibitor, partial curve]"}, {"measurement": "Potency", "setting": "[2]", "result": "inactive"}, {"measurement": "Potency", "setting": "[12]", "result": "inconclusive: 34.4 µM [activator, partial curve, poor fit]"}, {"measurement": "Potency", "setting": "[10]", "result": "inconclusive: 54.4 µM [falling, partial curve]"}]}, {"smiles": "O=C1C=CC(=O)N1c1ccccc1", "values": [{"measurement": "Potency", "setting": "[3]", "result": "inconclusive: 77 µM [cytotoxic, single point]"}, {"measurement": "Potency", "setting": "[4]", "result": "active: 9.69 µM"}, {"measurement": "Potency", "setting": "[6]", "result": "inconclusive: 27.3 µM [full curve]"}, {"measurement": "Potency", "setting": "[9]", "result": "active: 68.6 µM"}]}, {"smiles": "c1ccc2cc3ccccc3cc2c1", "values": [{"measurement": "Potency", "setting": "[1]", "result": "inconclusive: 17.8 µM [inhibitor, full curve] and inconclusive: 10.9 µM [inhibitor, full curve]"}, {"measurement": "Potency", "setting": "[6]", "result": "inconclusive: 25.1 µM [activator]"}, {"measurement": "activity, negative = inhibition", "setting": "[6]", "result": "inconclusive: 7.25%"}]}, {"smiles": "Cc1oc(-c2ccccc2)nc1CCOc1ccc(C[C@H](Nc2ccccc2C(=O)c2ccccc2)C(=O)O)cc1", "values": [{"measurement": "Potency", "setting": "[3]", "result": "inconclusive: 48.6 µM [cytotoxic, partial curve, poor fit]"}, {"measurement": "Potency", "setting": "[4]", "result": "active: 43.3 µM"}, {"measurement": "Potency", "setting": "[2]", "result": "inconclusive: 30.6 µM [inhibitor, full curve]"}, {"measurement": "activation", "setting": "[5]", "result": "inconclusive: -12.2%"}, {"measurement": "Potency", "setting": "[6]", "result": "active: 27.3 µM"}, {"measurement": "Potency", "setting": "[13]", "result": "active: 54.5 µM"}, {"measurement": "Potency", "setting": "[7]", "result": "active: 27.3 µM"}]}, {"smiles": "CCCCCCOc1cc(C)c(O)c(C)c1C", "values": [{"measurement": "Potency", "setting": "[3]", "result": "inconclusive: 61.9 µM [cytotoxic, single point]"}, {"measurement": "Potency", "setting": "[4]", "result": "inconclusive: 15.5 µM [cytotoxic, single point]"}, {"measurement": "Potency", "setting": "[5]", "result": "inconclusive: 69.4 µM [single point]"}, {"measurement": "Potency", "setting": "[6]", "result": "inconclusive: 69.4 µM [inhibitor, single point]"}, {"measurement": "Potency", "setting": "[8]", "result": "active: 61.9 µM"}, {"measurement": "Potency", "setting": "[10]", "result": "active: 55.1 µM"}]}]}
